Assay results published in the supplement of paper PMC11876631.
± gives the standard deviation of the averaged measurements. Laboratory Escherichia coli strains with one amino-acid change in an essential protein, pooled on minimal glucose agar with carbenicillin or gentamicin at twice the control MIC (plus kanamycin and chloramphenicol for the plasmids), 48 h. Fold change of barcode share against drug-free plates; higher = less susceptible. Active = above 20 in both replicates (the paper's putatively resistant). '<' = one read or none on drug, '>' = one read or none on a drug-free plate. Shares are relative, so most strains fall below 1 when a few take over. Listed are strains with at least 15 reads on both drug-free plates, and hits; most hits rest on fewer reference reads. Replicate rank correlation about 0.5. Edits are read from barcodes.

B1: lysA; a variant is named by its letters at X, in order (parent)
chain: MPHSLFSTDTDLTAENLLRLPAEFGCPXWXYDAQIIRRQIAALKQFDVVRFAQKACSNIHILRLMREQGVKVDSVSLGEIERALAAGYNPQTHPDDIXXTADVIDQATLERVSELQIPVNAGSVDMLDQLGQVSPGHRVWLRVNPGFGHGHSQKTNTGGENSKHGIWYTDLPAALDVIQRHHLQLVGIHMHIGSGVDYAHLEQXCGAMVRQVIEFGQDLQAISAGGGLSVPYQQGEEAVDTEHYYGLWNAAREQIARHLGHPVKLEIEPGRFLVAQSGVXXTQVRSVKQMGSRHFVLVDAGFNDLMRPAMYGSYHHISALAADGRSLEHAPTVETVVAGPLCESGDVFTQQEGGNVETRALPEVKAGDYLVLHDTGAYGASMSSNYNSRPLLPEVLFDNGQARLIRRRQTIEELLALELL
B2: folC; numbered along this chain (parent)
chain: MIIKRTPQAASPLASWLSYLENLHSKTIDLGLERVSLVAARLGVLKPAPFVFTVAGTNGKGTTCRTLESILMAAGYKVGVYSSPHLVRYTERVRVQGQELPESAHTASFAEIESARGDISLTYFEYGTLSALWLFKQAQLDVVILEVGLGGRLDATNIVDADVAVVTSIALDHTDWLGPDRESIGREKAGIFRSEKPAIVGEPEMPSTIADVAQEKGALLQRRGVEWNYSVTDHDWAFSDAHGTLENLPLPLVPQPNAATALAALRASGLEVSENAIRDGIASAILPGRFQIVSESPRVIFDVAHNPHAAEYLTGRMKALPKNGRVLAVIGMLHDKDIAGTLAWLKSVVDDWYCAPLEGPRGATAEQLLEHLGNGKSFDSVAQAWDAAMADAKAEDTVLVCGSFHTVAHVMEVIDARRSGGK
B3: argS; numbered along this chain (parent)
chain: MNIQALLSEKVRQAMIAAGAPADCEPQVRQSAKVQFGDYQANGMMAVAKKLGMAPRQLAEQVLTHLDLNGIASKVEIAGPGFINIFLDPAFLAEHVQQALASDRLGVATPEKQTIVVDYSAPNVAKEMHVGHLRSTIIGDAAVRTLEFLGHKVIRANHVGDWGTQFGMLIAWLEKQQQENAGEMELADLEGFYRDAKKHYDEDEEFAERARNYVVKLQSGDEYFREMWRKLVDITMTQNQITYDRLNVTLTRDDVMGESLYNPMLPGIVADLKAKGLAVESEGATVVFLDEFKNKEGEPMGVIIQKKDGGYLYTTTDIACAKYRYETLHADRVLYYIDSRQHQHLMQAWAIVRKAGYVPESVPLEHHMFGMMLGKDGKPFKTRAGGTVKLADLLDEALERARRLVAEKNPDMPADELEKLANAVGIGAVKYADLSKNRTTDYIFDWDNMLAFEGNTAPYMQYAYTRVLSVFRKAEIDEEQLAAAPVIIREDREAQLAARLLQFEETLTVVAREGTPHVMCAYLYDLAGLFSGFYEHCPILSAENEEVRNSRLKLAQLTAKTLKLGLDTLGIETVERM

Variants of: B1
Assay: barcode share on antibiotic plates over drug-free plates; higher = less susceptible
Conditions: with Escherichia coli (laboratory strain); antibiotic: carbenicillin; 2× MIC (3.1 µg/mL)
Method: (§1)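 A pool of E. coli strains, each edited to carry one amino-acid change in an essential protein, was grown for 48 h on minimal glucose agar with or without antibiotic; strain barcodes were sequenced; mean of two replicates.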

Row | Variant | fold change of barcode share
1 | VVVFVLA | 0.39 ± 0.084
2 | VVVFVLD | 0.525 ± 0.064
3 | WVVFVLI | 0.512 ± 0.078
4 | VVVFVLI V296Q | 0.285 ± 0.14
5 | VVVFVLI V296W | 0.262 ± 0.057
6 | VVVFVLP | 0.631 ± 0.41
7 | VVVFVLQ | 0.828 ± 0.18
8 | VVVFVLW | 0.621 ± 0.13
9 | VVVFVQI | 0.7 ± 0.29
10 | VVVPVLI | 0.444 ± 0.048
11 | VVVQVLI | 0.402 ± 0.068
12 | VVVWVLI | 0.547 ± 0.078
13 | VVWFVLI | 0.728 ± 0.016

Same assay, conditions: with Escherichia coli (laboratory strain); antibiotic: gentamicin; 2× MIC (MIC 0.45 µg/mL)

Row | Variant | fold change of barcode share
14 | VVVFVLA | 0.0565 ± 0.071
15 | VVVFVLD | 0.0348 ± 0.036
16 | WVVFVLI | 0.0363 ± 0.043
17 | VVVFVLP | 0.0477 ± 0.058
18 | VVVFVLQ | 0.0435 ± 0.053
19 | VVVFVLW | 0.0462 ± 0.06
20 | VVVFVQI | 0.0467 ± 0.055
21 | VVVPVLI | 0.0415 ± 0.05
22 | VVVQVLI | 0.0361 ± 0.043
23 | VVVWVLI | 0.0753 ± 0.019
24 | VVWFVLI | 0.0314 ± 0.035
25 | VAVFVLI | 0.0361 ± 0.035
26 | AVVFVLI | 0.609 ± 0.85
27 | QVVFVLI | 0.0264 ± 0.025
28 | DVVFVLI | 0.0177 ± 0.022
29 | PVVFVLI | 0.0234 ± 0.025
30 | VWVFVLI | 0.0204 ± 0.025

Variants of: B2
Assay: as above
Conditions: with Escherichia coli (laboratory strain); antibiotic: carbenicillin; 2× MIC (3.1 µg/mL)
Method: as §1

Row | Variant | fold change of barcode share
31 | F52A | 0.314 ± 0.014
32 | F52Q | 0.372 ± 0.051
33 | F52W | 0.437 ± 0.24
34 | L71A | 0.34 ± 0.1
35 | L71P | 0.304 ± 0.022
36 | L71Q | 0.334 ± 0.085
37 | L71W | 0.382 ± 0.022
38 | V143W | 0.199 ± 0.096
39 | I144Q | 0.2 ± 0.051
40 | V407A | 0.296 ± 0.054
41 | V407P | 0.542 ± 0.16
42 | V407Q | 1.13 ± 0.13

Same assay, conditions: with Escherichia coli (laboratory strain); antibiotic: gentamicin; 2× MIC (MIC 0.45 µg/mL)

Row | Variant | fold change of barcode share
43 | F52A | 0.0487 ± 0.034
44 | F52Q | 0.00627 ± 0.00052
45 | F52W | 0.969 ± 1.4
46 | L71A | 0.0158 ± 0.0074
47 | L71Q | 0.0116 ± 0.01
48 | L71W | 0.00398 ± 0.00042
49 | V143W | < 0.0111
50 | V407A | 0.005612 ± 6.7e-06
51 | V407P | 0.0158 ± 0.0057
52 | V143A | < 0.00298
53 | V143D | < 0.00697
54 | V143Q | < 0.00529
55 | L145A | 0.0187 ± 0.012
56 | L145D | < 0.00775
57 | L145P | 0.0128 ± 0.0041
58 | L145Q | < 0.00321
59 | V329A | 0.0167 ± 0.0099

Variants of: B3
Assay: as above
Conditions: with Escherichia coli (laboratory strain); antibiotic: carbenicillin; 2× MIC (3.1 µg/mL)
Method: as §1

Row | Variant | fold change of barcode share
60 | I83A | 0.395 ± 0.17
61 | I83P | 0.422 ± 0.011
62 | I83Q | 0.182 ± 0.0028
63 | I83W | 0.211 ± 0.034
64 | I85A | 0.265 ± 0.0084
65 | I85Q | 0.271 ± 0.11
66 | I85W | 0.231 ± 0.022
67 | V116A | 0.213 ± 0.032
68 | V116D | > 34.6 [active]
69 | V116P | 0.455 ± 0.0059
70 | V116Q | 0.247 ± 0.051
71 | V116W | 0.545 ± 0.33
72 | V117A | 0.35 ± 0.13
73 | V117Q | 0.304 ± 0.011
74 | V287A | 0.366 ± 0.038
75 | L334A | 0.222 ± 0.059
76 | L334D | 0.358 ± 0.15
77 | L334P | 0.332 ± 0.037
78 | L334Q | 0.298 ± 0.0073
79 | L334W | 0.253 ± 0.038
80 | M519W | 0.459 ± 0.27
81 | F530A | 0.182 ± 0.14
82 | F530W | 0.233 ± 0.11
83 | F533A | 0.265 ± 0.014

Same assay, conditions: with Escherichia coli (laboratory strain); antibiotic: gentamicin; 2× MIC (MIC 0.45 µg/mL)

Row | Variant | fold change of barcode share
84 | I83A | < 0.00922
85 | I83P | < 0.00717
86 | I83Q | < 0.00886
87 | I83W | < 0.00618
88 | I85A | < 0.00663
89 | I85Q | 0.0156 ± 0.0054
90 | I85W | < 0.0058
91 | V116A | < 0.00297
92 | V116P | < 0.00635
93 | V116Q | 0.0127 ± 0.0054
94 | V116W | < 0.00347
95 | V117A | 0.00942 ± 0.011
96 | V287A | < 0.0167
97 | L334A | < 0.00246
98 | L334D | 0.0134 ± 0.015
99 | L334P | 0.218 ± 0.29
100 | L334Q | 0.00361 ± 0.00037
101 | L334W | < 0.00347
102 | M519W | < 0.0123
103 | F530A | < 0.0119
104 | F530W | < 0.00466
105 | F533A | 0.0133 ± 0.0057
